From PubChem BioAssay (NCATS)
The inconclusive results got no clear call from the source; some entries with a clear call stand among them for comparison. For some assays here: Potencies beside an inconclusive call are fits to weak or partial responses and may not hold up. The source holds several records for some structures; these can differ, active in one and inactive in another. The source made the active and inactive calls. Calls come from the whole dose curve; as a rule, active = well fitted curve in the direction sought with a large enough effect; inconclusive = small, poorly fitted or top-dose-only effect, or another doubt; inactive = no such curve, though single readings can be large; an effect the other way counts as inactive or inconclusive. *1 amine or outer side, *2 acyl side, *3 side chain or, on linkers, in order; H or OH if unused. Where a SMILES comes first, the peptide text is derived from it. Bridges are numbered along the chain shown (N, C = ends). [ ]: non-standard residue; d: D form. The star is where a group is joined. ξ: configuration not given here. ξhTyr(3S-OH,4S-OH,3'-OSO3H) = NC(C(=O)O)[C@H](O)[C@@H](O)c1ccc(O)c(OS(=O)(=O)O)c1; Orn(4R-OH,5R-OH) = O=C([C@H](C[C@@H](O)[C@@H](O)N[*:3])N[*:1])[*:2]; X2 = CCCCCOc1ccc(-c2cc(-c3ccc(C(=O)*)cc3)no2)cc1; X3 = C[C@H]1CN([*:1])C(C(=O)[*:2])[C@H]1O; ξGln(3R-OH) = NC(=O)C[C@@H](O)C(N)C(=O)O; ξPro(4R-OH) = O=C(O)C1C[C@@H](O)CN1; ξThr(3R) = C[C@@H](O)C(N)C(=O)O

Assays:
[1] = P-glycoprotein substrates identified in KB-3-1 adenocarcinoma cell line, qHTS therapeutic library screen (AID 1346986); note: nearly all actives have a fitted effect of over 60% in size
Procedure, shortened: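 Resistance attributable to P-gp was assessed by comparing AC50 in KB-8-5-11 with parental KB-3-1 and by tariquidar reversal. Cells were exposed 72 h and viability read by CellTiter-Glo.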

[2] = molecular target: Furin (Homo sapiens) (UniProt P09958); assay: Furin counterscreen qHTS for Zika virus inhibitors (AID 1347149); details: furin enzymatic counterscreen, fluorogenic substrate; activity change, negative = inhibition: at 57.5 µM (top of the series); note: potency is the fitted concentration of half-maximal effect; nearly all actives have a fitted effect of over 70% in size
Procedure, shortened: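 Fluorogenic cleavage of BOC-RVRR-AMC (2 microM final, Km ~15 µM) was monitored (ex 340, em 450 nm) at 37C after 15 min RT preincubation of 5 nM furin with compounds in HEPES pH 7.0 buffer with CaCl2 and Triton X-100. Percent inhibition was fitted to a 4-parameter Hill curve.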

[3] = tested on: Zika virus NS2B-NS3 protease (unlinked complex); assay: Confirmatory screen GU AMC qHTS for Zika virus inhibitors (AID 1347153);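 note: enzyme at 25 nM with substrate at 10 µM below its Km of 18.3 µM; potency is the fitted concentration of half-maximal effect; nearly all actives have a fitted effect of over 70% in size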
Procedure, shortened: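 Fluorescence change (ex 340/em 450 nm) over 15 min, ~20% substrate conversion, normalized to no-inhibitor and no-enzyme controls, then Hill-fitted. Unlinked protease at 25 nM; AMC peptide 10 µM.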

[4] = tested on: Zika virus NS2B-NS3 protease (unlinked complex); assay: Primary screen GU Rhodamine qHTS for Zika virus inhibitors: Unlinked NS2B-NS3 protease assay (AID 1347159); note: potency is the fitted concentration of half-maximal effect; nearly all actives have a fitted effect of over 60% in size
Procedure, shortened: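 A qHTS format was used, with compound concentrations ranging up to 114 microM. Each compound was preincubated with 25 nM NS2B-NS3 protease, and the substrate was then added at 1.5 microM. Curves were fitted with a 4-parameter Hill model.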

[5] = tested on: Zika virus NS2B-NS3 protease (linked construct); assay: Primary screen NINDS Rhodamine qHTS for Zika virus inhibitors (AID 1347160); details: activity change, negative = inhibition: at 57.1 µM (top of the series) unless noted; note: nearly all actives have a fitted effect of over 55% in size; note: potency is the fitted concentration of half-maximal effect; for activity change, negative = inhibition: % is set by controls: 0 for no effect and ±100 for the full control effect
Procedure, shortened: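 Kinetic fluorescence (Ex 480 nm, Em 540 nm) over 15 min with 1.5 microM Rhodamine110 peptide and 25 nM linked protease.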

[6] = Tertiary RLuc qRT-PCR qHTS assay for Zika virus inhibitors (AID 1347169); note: potency is the fitted concentration of half-maximal effect; nearly all actives have a fitted effect of over 55% in size
Procedure, shortened: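 Orthogonal cell-based infection assay using recombinant ZIKV-RLuc (Cambodian) in Vero cells; compound added prior to virus at MOI 1-2. Incubation lasts 48-72 hrs at 37 degrees C before live-cell Renilla substrate is added and luminescence measured.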

[7] = molecular target: Phospholipid hydroperoxide glutathione peroxidase GPX4 (Homo sapiens) (UniProt P36969); assay: Primary qHTS Assay for Inhibitors of Recombinant Selenoprotein Glutathione Peroxidase 4 (GPX4) (AID 1845192); note: potency is the fitted concentration of half-maximal effect; nearly all actives have a fitted effect of over 65% in size
Procedure, shortened: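 GR-coupled readout: 100 nM GR, 1 mM GSH, 0.5 mM NADPH; NADPH fluorescence (ex 340/em 450 nm) read at t=0 and after 15 min RT. GPX4 200 nM, preincubated 30 min with compound; substrate 0.5 mM CHP.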

[8] = Primary fluorescence-based thiol-reactive (MSTI) qHTS assay for identification of artifact compounds. (AID 1845221);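 note: potency is the fitted concentration of half-maximal effect; thiol-reactive compounds lower the probe fluorescence signal; nearly all actives have a fitted effect of over 65% in size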
Procedure, shortened: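 Compounds were incubated 1 h at room temperature in the dark with the MSTI probe (4 uM) in PBS pH 7.4, 2% DMSO. Signals were normalized between Acetyl-MSTI and MSTI.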

[9] = Primary redox qHTS assay for identification of artifact compounds. (AID 1845223); details: Amplex Red/HRP redox cycling with DTT, fluorescence; redox activity (% of DA3003): at 53.8 µM (top of the series); note: potency is the fitted concentration of half-maximal effect
Procedure, shortened: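 Amplex Red (25 uM) and HRP (250 mU/mL) in HBSS, with compounds for 15 min, then 250 uM DTT for 30 min, room temperature, dark. Fluorescence 525/598 nm read; normalized to DMSO and 10 uM DA3003; Hill fit.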

[10] = tested on: CRL-7250; assay: Cytotoxic Profiling of Annotated Libraries Using Quantitative High-Throughput Screening (AID 1296008); details: Five cell lines viability, CellTiter-Glo ATP luminescence, 48-72 h; max response: stronger effect = lower value; note: nearly all actives have a fitted effect of over 60% in size; note: potency is the fitted concentration of half-maximal effect
Procedure, shortened: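 Compounds were pin-transferred onto cells and incubated 48 or 72 hr at 37 degree Celsius, 95% humidity. CellTiter-Glo was added, plates sat 10 min at room temperature, then ATP-coupled luminescence was imaged as the viability read-out.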

[11] = tested on: CASKI; assay: Primary qHTS to identify gynecologic anti-cancer compounds using libraries of approved drugs and bioactive compounds (AID 1345084); details: Gynecologic cancer cell panel viability, ATPlite luminescence, 48 h; series mostly up to 57.5 µM; note: nearly all actives have a fitted effect of over 55% in size; note: potency is the fitted concentration of half-maximal effect; for activity change, negative = cytotoxicity: % is set by controls: 0 for no effect and ±100 for the full control effect
Procedure, shortened: (§1)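 Luminescence from the ATPlite ATP-monitoring reagent indicates viable cell number; lower signal means cytotoxicity. Cells received compound 16 h after seeding and were exposed for 48 h across five concentrations.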

[12] = Primary qHTS for inhibitors of nuclear receptor binding SET domain protein 2 (NSD2) in an isogenic RCH-ACV NSD2 p.E1099K mutant (9B) (AID 1645876); note: potency is the fitted concentration of half-maximal effect; nearly all actives have a fitted effect of over 70% in size
[13] = Primary qHTS for inhibitors of nuclear receptor binding SET domain protein 2 (NSD2) in an RCH-ACV wild type WT cells (2C) (AID 1645877); details: activity change, negative = cell killing: at 44.9 µM (top of the series) unless noted; note: nearly all actives have a fitted effect of over 70% in size; note: potency is the fitted concentration of half-maximal effect
[14] = tested on: Es-2; assay: Primary qHTS to identify gynecologic anti-cancer compounds using libraries of approved drugs and bioactive compounds (AID 1345084); details: Gynecologic cancer cell panel viability, ATPlite luminescence, 48 h; series mostly up to 57.5 µM; note: nearly all actives have a fitted effect of over 55% in size; note: potency is the fitted concentration of half-maximal effect; for activity change, negative = cytotoxicity: % is set by controls: 0 for no effect and ±100 for the full control effect
Procedure, shortened: as §1

[15] = tested on: OV90; assay: as above; details: Gynecologic cancer cell panel viability, ATPlite luminescence, 48 h; series mostly up to 57.5 µM
Procedure, shortened: as §1

[16] = tested on: SKOV3; assay: as above; details: Gynecologic cancer cell panel viability, ATPlite luminescence, 48 h; series mostly up to 57.5 µM
Procedure, shortened: as §1

[17] = P-glycoprotein substrates identified in KB-8-5-11 adenocarcinoma cell line, qHTS therapeutic library screen (AID 1346987); note: potency is the fitted concentration of half-maximal effect; nearly all actives have a fitted effect of over 65% in size
Procedure, shortened: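 KB-8-5-11, a colchicine-selected P-gp-overexpressing KB-3-1 subline, was grown without colchicine for the assay. Cells were seeded at 500 cells/well, dosed in concentration-response and incubated 72 h at 37 degree C, 5% CO2. Viability was read by CellTiter-Glo luminescence.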

[18] = NS1 protein of Zika virus - qHTS assay to identify small molecule inhibitors in human HEK 293 cells (AID 1347053)
Procedure, shortened: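 Following 20 h seeding, HEK 293 cells took compound, then 1 h later ZIKV MR766 (MOI = 0.5). Incubation ran 24 h at 37 C before TR-FRET detection of NS1; a drop in signal indicates inhibition.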

[19] = qHTS of pediatric cancer cell lines to identify multiple opportunities for drug repurposing: Primary screen for SK-N-SH cells (AID 1347098);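 note: DMSO served as neutral control and bortezomib at 2.3 µM as positive control; % is set by controls: 0 for no effect and ±100 for the full control effect; nearly all actives have a fitted effect of over 65% in size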
Procedure, shortened: (§2)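 Cells (500-1,000/well) rested 5 h, then received compounds for 48 h; metabolically active cells were measured by CellTiter-Glo luminescence. Final concentrations spanned up to 46 µM (MIPE, 11-point) or 0.59 nM-46 µM (NPC, 8-point) in primary screens, 11-point in follow-ups.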

[20] = qHTS of pediatric cancer cell lines to identify multiple opportunities for drug repurposing: Primary screen for LAN-5 cells (AID 1347100);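 note: plate controls were DMSO neutral control for no effect and bortezomib positive control for full effect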
Procedure, shortened: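 Cells (500-1,000/well) in growth media were settled 5 h at 37 degrees C, then given compounds for 48 h. Viability was read as CellTiter-Glo luminescence. Primary runs used MIPE at 11 points (0.78 nM-46 µM) and NPC at 8 points (0.59 nM-46 µM); follow-ups used 11 points.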

[21] = qHTS of pediatric cancer cell lines to identify multiple opportunities for drug repurposing: Primary screen for OHS-50 cells (AID 1347103); note: potency is the fitted concentration of half-maximal effect; nearly all actives have a fitted effect of over 40% in size
Procedure, shortened: as §2

[22] = Primary qHTS for small molecule stabilizers of the endoplasmic reticulum resident proteome: Secreted ER Calcium Modulated Protein (SERCaMP) assay (AID 1508630); details: SH-SY5Y GLuc-SERCaMP (Gaussia luciferase released on ER calcium loss) secretion, thapsigargin, luminescence; activity change, negative = inhibition: at 38.4 µM (top of the series) unless noted; note: % is set by controls: 0 for no effect and ±100 for the full control effect
Procedure, shortened: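 GLuc-SERCaMP-expressing SH-SY5Y cells, pretreated 16 h with compound, are challenged with thapsigargin to empty ER calcium stores; after 4 h, coelenterazine is added directly to the medium and luminescence is imaged.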

[23] = tested on: HeLa; assay: Primary qHTS to identify gynecologic anti-cancer compounds using libraries of approved drugs and bioactive compounds (AID 1345084); details: Gynecologic cancer cell panel viability, ATPlite luminescence, 48 h; activity change, negative = cytotoxicity: at 57.5 µM (top of the series); note: nearly all actives have a fitted effect of over 55% in size; note: potency is the fitted concentration of half-maximal effect
Procedure, shortened: as §1

[24] = Drug repurposing screens with cells derived from glioblastoma tumor samples (AID 1345199); details: GBM patient neurospheres viability, ATP luminescence, 48 h; Potency: tumour line A unless noted; activity, negative = cell killing: at 46 µM (top of the series), tumour line A unless noted; note: potency is the fitted concentration of half-maximal effect; nearly all actives have a fitted effect of over 40% in size
Procedure, shortened: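 Four patient lines of CD133+ GBM neurospheres were screened at several concentrations; hits were retested in those lines plus three slower-growing GBM lines, using 48-hour treatment and ATP-based viability.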

[25] = tested on: PA-1; assay: Primary qHTS to identify gynecologic anti-cancer compounds using libraries of approved drugs and bioactive compounds (AID 1345084); details: Gynecologic cancer cell panel viability, ATPlite luminescence, 48 h; series mostly up to 57.5 µM; note: nearly all actives have a fitted effect of over 55% in size; note: potency is the fitted concentration of half-maximal effect
Procedure, shortened: as §1
Tags give direction and shape of the fitted curve.

UniProt P09958, sequence (P09958 whole entry, looked up): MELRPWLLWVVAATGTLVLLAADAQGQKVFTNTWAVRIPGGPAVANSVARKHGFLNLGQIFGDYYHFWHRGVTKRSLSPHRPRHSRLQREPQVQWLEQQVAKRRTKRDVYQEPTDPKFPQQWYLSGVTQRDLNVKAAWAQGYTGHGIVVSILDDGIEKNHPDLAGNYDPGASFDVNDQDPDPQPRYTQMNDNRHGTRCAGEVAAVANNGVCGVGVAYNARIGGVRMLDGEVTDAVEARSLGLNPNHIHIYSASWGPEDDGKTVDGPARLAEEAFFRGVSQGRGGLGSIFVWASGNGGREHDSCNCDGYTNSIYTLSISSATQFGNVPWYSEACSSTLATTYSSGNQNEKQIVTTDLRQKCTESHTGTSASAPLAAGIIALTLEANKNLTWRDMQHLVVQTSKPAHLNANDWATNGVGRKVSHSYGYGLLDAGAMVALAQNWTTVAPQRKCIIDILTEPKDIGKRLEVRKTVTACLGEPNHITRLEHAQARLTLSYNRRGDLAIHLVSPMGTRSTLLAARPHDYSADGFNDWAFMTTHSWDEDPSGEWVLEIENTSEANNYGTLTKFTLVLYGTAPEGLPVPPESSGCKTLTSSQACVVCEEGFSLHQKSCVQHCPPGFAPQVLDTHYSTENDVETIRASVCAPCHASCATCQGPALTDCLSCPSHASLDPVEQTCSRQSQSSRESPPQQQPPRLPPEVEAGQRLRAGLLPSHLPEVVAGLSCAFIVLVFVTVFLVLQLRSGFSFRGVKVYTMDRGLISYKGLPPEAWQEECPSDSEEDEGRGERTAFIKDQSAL
UniProt P36969, sequence (P36969 whole entry, looked up): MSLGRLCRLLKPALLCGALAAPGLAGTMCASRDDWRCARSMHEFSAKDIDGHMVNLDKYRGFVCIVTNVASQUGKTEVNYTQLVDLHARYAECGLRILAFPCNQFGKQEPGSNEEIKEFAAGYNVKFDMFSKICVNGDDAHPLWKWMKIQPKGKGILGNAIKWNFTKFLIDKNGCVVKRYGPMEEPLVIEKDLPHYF

CCCCCOc1ccc(-c2cc(-c3ccc(C(=O)N[C@H]4C[C@@H](O)[C@@H](O)NC(=O)C5[C@@H](O)[C@@H](C)CN5C(=O)C([C@H](O)CC(N)=O)NC(=O)C([C@H](O)[C@@H](O)c5ccc(O)c(OS(=O)(=O)O)c5)NC(=O)C5C[C@@H](O)CN5C(=O)C([C@@H](C)O)NC4=O)cc3)no2)cc1 (stereo partly drawn) (X2-[Orn(4R-OH,5R-OH)][ξThr(3R)][ξPro(4R-OH)][ξhTyr(3S-OH,4S-OH,3'-OSO3H)][ξGln(3R-OH)][X3]; lactam 1-C)
inactive: Potency [1] | outcome [10]
inconclusive: Potency [2] 24.2 µM [inhibitor, partial curve] | Potency [6] 18.1 µM [inhibitor, single point] | Potency [8] 1.64 µM [inhibitor, partial curve] | Potency [9] 9.22 µM [activator, partial curve] | Potency [11] 11.2 µM [rising, partial curve, poor fit]
active: Potency [3] 21.5 µM | Potency [4] 2.24 µM | Potency [5] 4.47 µM | Potency [7] 2 µM

CC(=O)O[C@@H]1[C@H](O)[C@@H](O[C@@H]2O[C@@H](C)[C@H](O[C@@H]3OC[C@@H](O)[C@H](O[C@@H]4OC[C@@H](O)[C@H](O)[C@H]4O)[C@H]3O)[C@@H](O[C@@H]3O[C@H](CO)[C@@H](O)[C@H](O)[C@H]3O)[C@H]2O)[C@H](OC(=O)[C@]23CCC(C)(C)C[C@H]2C2=CCC4[C@@]5(C)CC[C@H](O[C@@H]6O[C@H](C(=O)O)[C@@H](O)[C@H](O[C@@H]7OC[C@@H](O)[C@H](O)[C@H]7O)[C@H]6O[C@@H]6O[C@H](CO)[C@H](O)[C@H](O)[C@H]6O)[C@@](C)(C=O)C5CC[C@@]4(C)[C@]2(C)CC3)O[C@@H]1C (stereo partly specified)
inconclusive: Potency [12] 2.23 µM [inhibitor, single point] | Potency [13] 2.5 µM [inhibitor, single point] | Potency [10] 2.24 µM [inhibitor, single point] | Potency [15] 3.16 µM [cytotoxic, single point] | Potency [16] 0.1 µM [cytotoxic, single point]
inactive: activity change, negative = inhibition [5] 7.65% [at 10.7 µM] | activity change, negative = cytotoxicity [14] -2.98% [at 6.55 µM]

N#C/C(=C1\SCC(c2ccccc2Cl)S1)n1ccnc1 (stereo unspecified)
active: Potency [24] 10 µM
inactive: Potency [18] | Potency [19] | Potency [20] | Potency [22]
inconclusive: Potency [17] 25.9 µM [inhibitor, single point] | Potency [21] 24.6 µM [cytotoxic, single point] | Potency [12] 21.1 µM [inhibitor, single point] | Potency [13] 21.1 µM [inhibitor, single point] | Potency [10] 33.5 µM [inhibitor, single point] | Potency [23] 39.8 µM [cytotoxic, single point] | Potency [16] 35.5 µM [cytotoxic, single point]

COc1cc(C(C)=O)ccc1O[C@@H]1O[C@H](CO[C@@H]2O[C@@H](C)[C@H](O)[C@@H](O)[C@H]2O)[C@@H](O)[C@H](O)[C@H]1O
inconclusive: Potency [25] 3.98 µM [rising, single point] | Potency [16] 0.0631 µM [rising, full curve, poor fit]
inactive: Potency [13] | max response [10] -2.17% | Potency [11]

CC1C(OC(=O)c2ccccc2)C(O)C2C(C(=O)O)=COC(OC3OC(CO)C(O)C(O)C3O)C12 (stereo unspecified)
inconclusive: Potency [4] 35.5 µM [inhibitor, partial curve, poor fit] | Potency [8] 6.53 µM [inhibitor, partial curve]
inactive: Potency [13] | max response [10] 3.33% | Potency [23] | Potency [15]
